According to PubChem BioAssay (Tox21):
Where “and” joins values, the source holds several entries; their conditions need not be identical. Equal values may be shown once. Inconclusive means that the source gave no clear call. Such entries were picked first, then a sample of the others. For some of these results: A potency beside an inconclusive call is a rough fit, not a confirmed value. Where a structure was tested more than once in an assay, its records may differ in their call. Calls of active or inactive are those of the source. Unless noted, calls follow the shape of the dose curve; as a rule, active = well fitted curve in the direction sought with a large enough effect in the repeat runs; inconclusive = weak or mixed curves; inactive = no such curve, though single readings can be large; an effect the other way counts as inactive or inconclusive.

Columns and labels:
[1] = qHTS assay to identify small molecule antagonists of the retinoid acid receptor (RAR) signaling pathway - cell viability counter screen (AID 1159551); also: potency is read from the fitted curve at half-maximal effect; nearly all actives have a fitted effect of over 35% in size
How it was run: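 ATP-based viability, C3RL4 cells, 6 h at 37 C with 1 uM final retinol co-added after compound; luminescence read 30 min post CellTiter-Glo, RT.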

[2] = qHTS assay to identify small molecule agonists of the retinoic acid receptor (RAR) signaling pathway (AID 1159553); conditions: C3RL4 RARE luciferase reporter, agonist, 6 h; activation: at 73.3 µM (top of the series) unless noted; also: potency is read from the fitted curve at half-maximal effect; as to activation: % is scaled to controls: 0 for no effect and ±100 for the full control effect
How it was run: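 Quantitative high-throughput format: the Tox21 10K library was tested on C3RL4 RARE-luciferase cells for 6 hr at 37 C and 5% CO2, with luminescence measured after a 30 min room-temperature reagent step.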

[3] = qHTS assay to identify small molecule antagonists of the estrogen related receptor (ERR) signaling pathway from Tox21 library - cell viability counter screen (AID 1224834); also: potency is read from the fitted curve at half-maximal effect; nearly all actives have a fitted effect of over 30% in size
How it was run: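 Compounds in DMSO were pinned onto ERR cells that had been incubated for 6 h, and the plates were held at 37 C for 17.5 h. CellTiter-Fluor reagent was then added and fluorescence was measured after 30 min.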

[4] = qHTS assay to identify small molecule agonists of the constitutive androstane receptor (CAR) signaling pathway - cell viability counter screen (AID 1224836); also: potency is read from the fitted curve at half-maximal effect; nearly all actives have a fitted effect of over 45% in size
How it was run: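 Using CellTiter-Fluor, viability of HepG2 cells harbouring hCAR and CYP2B6-2.2kb was measured following 23 h incubation with a 15-concentration compound series plus PK11195 (0.75 uM final).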

[5] = qHTS assay to identify small molecule antagonists of the constitutive androstane receptor (CAR) signaling pathway - cell viability counter screen (AID 1224837); also: potency is read from the fitted curve at half-maximal effect; nearly all actives have a fitted effect of over 45% in size
How it was run: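 Cells are seeded, rested 4 hr at 37 C/5% CO2, dosed with compound (15-point series) and 50 nM CITCO, incubated a further 23 hr, and then CellTiter-Fluor reagent is added before fluorescence is read. The line is HepG2 with stable hCAR and CYP2B6-2.2kb.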

[6] = qHTS assay to identify small molecule antagonists of the estrogen related receptor signaling pathway with the pleiotropic PPARgamma coactivator (PGC) from Tox21 10K library - cell viability counter screen (AID 1224840; active = well fitted cell-killing curve with a large enough effect in the repeat runs, not every such curve was filed as active; inconclusive = weak or mixed curves, or effect the other way; inactive = no such curve, though single readings can be large or run the other way; also: potency is read from the fitted curve at half-maximal effect; nearly all actives have a fitted effect of over 40% in size)
How it was run: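 Cell viability is measured by CellTiter-Fluor fluorescence in PGC/ERR cells that receive compounds after a 6-hour attachment period and are then incubated 17.5 hours at 37 C.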

[7] = qHTS assay to identify small molecule antagonists of the estrogen related receptor signaling pathway with the pleiotropic PPARgamma coactivator (PGC) from Tox21 10K library (AID 1224841; call rule not given here; also: potency is read from the fitted curve at half-maximal effect; actives are mostly falling curves and most rising ones were filed inactive; nearly all actives have a fitted effect of over 50% in size)
How it was run: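 Cells stably carrying the PGC/ERR reporter, seeded at 2,000 per well, received pin-transferred compounds 6 h post-plating. Exposure lasted 18 h at 37 C. Signal: One-Glo luminescence.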

[8] = target: Luciferin 4-monooxygenase (Photinus pyralis) (UniProt P08659); assay: qHTS assay to identify small molecule inhibitors of firefly luciferase (AID 1224835); also: % is scaled to controls: 0 for no effect and ±100 for the full control effect; nearly all actives have a fitted effect of over 25% in size
How it was run: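 Biochemical qHTS: compounds run as interplate titrations against purified firefly enzyme, with D-luciferin and ATP each at its KM concentration. Light output recorded by CCD imaging.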

[9] = target: Nuclear receptor subfamily 1 group I member 3 (Homo sapiens) (UniProt Q14994); assay: qHTS assay to identify small molecule antagonists of the constitutive androstane receptor (CAR) signaling pathway (AID 1224838);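 also: HepG2 cells stably expressing hCAR with CYP2B6 luciferase reporter stimulated by CITCO; potency is read from the fitted curve at half-maximal effect; nearly all actives have a fitted effect of over 40% in size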
How it was run: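 Luminescence from a CYP2B6-2.2kb promoter reporter in hCAR-expressing HepG2 cells reflects CAR signaling. Cells received compounds at 15 concentrations and 50 nM CITCO (final), then incubated 24 h at 37 C/5% CO2.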

[10] = qHTS assay to identify small molecule agonists of the estrogen related receptor signaling pathway with the pleiotropic PPARgamma coactivator (PGC) from Tox21 10K library (AID 1224842); also: potency is read from the fitted curve at half-maximal effect; nearly all actives have a fitted effect of over 15% in size
How it was run: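 PGC/ERR reporter cell line, 2,000 cells per well, incubated 6 h at 37 C before 23 nL compound in DMSO was added. After 18 h at 37 C, One-Glo luminescence read following 30 min at room temperature.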

[11] = target: Thyrotropin receptor (Homo sapiens) (UniProt P16473); assay: qHTS assay to identify small molecule agonists of the thyroid stimulating hormone receptor (TSHR) signaling pathway (AID 1224843; calls by dose curve; also: nearly all actives have a fitted effect of over 45% in size; also: potency is read from the fitted curve at half-maximal effect; as to activation: % is scaled to controls: 0 for no effect and ±100 for the full control effect); conditions: TSHR-HEK293 cells, cAMP HTRF, agonist mode, 30 min; activation: at 92.4 µM (top of the series) unless noted
How it was run: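 Agonist-mode screen: TSHR HEK293 cells received test chemicals for half an hour at room temperature, then HTRF cAMP detection reagents for one hour prior to fluorescence measurement. Each chemical ran as a 15-concentration series, triplicated.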

[12] = qHTS assay to identify small molecule agonists of the hypoxia (HIF-1) signaling pathway - cell viability counter screen (AID 1224844; calls by dose curve; also: nearly all actives have a fitted effect of over 50% in size; also: potency is read from the fitted curve at half-maximal effect)
How it was run: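 Viability counter screen: HRE-bla ME-180 cells plated 5 hrs before compound addition, treated 17 hrs at 37C and 5% CO2, then CellTiter-Glo added after the FRET reporter read; luminescence after 30 min.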

[13] = qHTS assay to identify small molecule antagonists of the estrogen related receptor (ERR) signaling pathway - cell viability counter screen (AID 1224818);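 also: potency is read from the fitted curve at half-maximal effect; viability measured after 17.5 h of compound exposure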
How it was run: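 Quantitative high-throughput viability counter screen in ERR cells. Compounds (DMSO) incubated 17.5 h at 37 C; read-out was CellTiter-Fluor fluorescence.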

[14] = qHTS assay to identify small molecule antagonists of the estrogen related receptor (ERR) signaling pathway (AID 1224819; also: potency is read from the fitted curve at half-maximal effect; nearly all actives have a fitted effect of over 50% in size)
How it was run: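 ERR reporter cell line (NTP) plated at 2,000 cells/well, settled 6 h at 37C/5% CO2, then exposed to LOPAC compounds for 18 h at 37C. One-Glo luciferase luminescence read after 30 min at room temperature.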

[15] = qHTS assay to identify small molecule antagonists of the estrogen related receptor signaling pathway with the pleiotropic PPARgamma coactivator (PGC) cell viability counter screen (AID 1224822; also: potency is read from the fitted curve at half-maximal effect)
How it was run: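 Cytotoxicity in the PGC/ERR cell line is assessed with CellTiter-Fluor, read as fluorescence intensity 30 min after reagent addition, following 17.5 h compound treatment at 37 C.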
Tags tell the direction and shape of the fitted curve or compound fluorescence and quenching.

Sequence of UniProt P16473 (P16473 whole entry, looked up): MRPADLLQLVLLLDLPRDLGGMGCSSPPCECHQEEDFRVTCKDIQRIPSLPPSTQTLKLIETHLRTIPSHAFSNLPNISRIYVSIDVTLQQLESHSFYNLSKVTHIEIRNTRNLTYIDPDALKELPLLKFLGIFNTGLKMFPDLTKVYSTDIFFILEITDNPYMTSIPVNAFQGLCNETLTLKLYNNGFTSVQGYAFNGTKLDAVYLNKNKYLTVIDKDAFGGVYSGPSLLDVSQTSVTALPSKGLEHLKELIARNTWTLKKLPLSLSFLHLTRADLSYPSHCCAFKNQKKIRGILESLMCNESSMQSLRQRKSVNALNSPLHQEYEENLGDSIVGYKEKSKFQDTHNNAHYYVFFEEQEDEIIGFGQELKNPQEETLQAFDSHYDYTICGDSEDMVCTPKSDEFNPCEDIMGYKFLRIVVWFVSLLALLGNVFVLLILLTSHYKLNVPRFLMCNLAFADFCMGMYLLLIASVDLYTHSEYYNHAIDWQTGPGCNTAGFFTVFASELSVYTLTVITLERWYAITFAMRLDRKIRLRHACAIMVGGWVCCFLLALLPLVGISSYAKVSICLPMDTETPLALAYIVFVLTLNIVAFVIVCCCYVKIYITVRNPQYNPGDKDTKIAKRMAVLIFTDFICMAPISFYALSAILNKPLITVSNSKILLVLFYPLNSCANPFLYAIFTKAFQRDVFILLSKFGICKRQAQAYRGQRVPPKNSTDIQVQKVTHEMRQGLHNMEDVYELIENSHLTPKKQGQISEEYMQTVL
Sequence of UniProt P08659 (P08659 whole entry, looked up): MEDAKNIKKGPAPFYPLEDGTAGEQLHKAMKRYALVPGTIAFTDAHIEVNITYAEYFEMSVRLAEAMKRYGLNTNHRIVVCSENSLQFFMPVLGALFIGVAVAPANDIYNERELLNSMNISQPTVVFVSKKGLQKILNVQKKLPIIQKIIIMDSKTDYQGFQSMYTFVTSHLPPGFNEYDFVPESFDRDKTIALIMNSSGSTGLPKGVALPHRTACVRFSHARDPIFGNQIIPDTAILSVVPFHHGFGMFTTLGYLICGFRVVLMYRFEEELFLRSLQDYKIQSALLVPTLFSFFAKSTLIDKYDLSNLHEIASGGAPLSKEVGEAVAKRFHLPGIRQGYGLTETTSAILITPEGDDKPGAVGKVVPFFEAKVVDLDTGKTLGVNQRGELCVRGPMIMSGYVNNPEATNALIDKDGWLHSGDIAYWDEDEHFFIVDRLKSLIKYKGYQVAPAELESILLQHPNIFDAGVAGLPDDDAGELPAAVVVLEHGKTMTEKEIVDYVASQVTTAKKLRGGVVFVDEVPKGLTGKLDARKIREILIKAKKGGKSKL
Sequence of UniProt Q14994 (Q14994 whole entry, looked up): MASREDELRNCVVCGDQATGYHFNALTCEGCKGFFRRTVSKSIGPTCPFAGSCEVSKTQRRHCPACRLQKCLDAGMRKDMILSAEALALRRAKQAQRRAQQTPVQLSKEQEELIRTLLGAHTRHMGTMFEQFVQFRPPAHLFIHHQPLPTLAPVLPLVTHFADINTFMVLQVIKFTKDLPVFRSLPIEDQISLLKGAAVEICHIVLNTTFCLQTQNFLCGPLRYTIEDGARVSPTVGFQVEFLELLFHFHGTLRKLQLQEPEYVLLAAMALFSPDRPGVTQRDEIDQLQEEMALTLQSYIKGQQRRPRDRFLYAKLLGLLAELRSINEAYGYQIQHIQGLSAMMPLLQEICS

CC(C)c1ccc2c(c1)CC[C@H]1[C@](C)(CN)CCC[C@]21C
Potency [1]: inconclusive: 68.6 µM [cytotoxic]
Potency [2]: inconclusive: 61.1 µM [inhibitor, partial curve]
Potency [3]: inconclusive: 68.6 µM [cytotoxic, single point]
Potency [4]: inconclusive: 68.6 µM [cytotoxic]
Potency [5]: active: 68.6 µM
Potency [6]: inconclusive: 68.6 µM [cytotoxic, single point]
Potency [7]: inconclusive: 68.6 µM [falling, single point]

Nc1ncnc2c1ncn2[C@@H]1O[C@H](COP(=O)(O)O)[C@@H](O)[C@H]1O
Potency [1]: inconclusive: 7.5 µM [rising, full curve]
Potency [2]: inactive
Potency [8]: inactive

CCCCCCCCCCCCCCCC[N+](C)(C)CCN(Cc1ccc(OC)cc1)c1ncccn1
Potency [1]: active: 29.8 µM
Potency [2]: inconclusive: 26.6 µM [inhibitor, partial curve]
Potency [3]: active: 29.8 µM
Potency [4]: inconclusive: 13.3 µM [cytotoxic, full curve]
Potency [5]: inconclusive: 29.8 µM [cytotoxic]
Potency [9]: inconclusive: 33.5 µM [inhibitor, single point]

Nc1ccc(O)cc1
Potency [1]: inconclusive: 63.5 µM [cytotoxic, partial curve]
Potency [2]: active: 20.1 µM and inconclusive: 33.5 µM [activator, partial curve, poor fit]
Potency [10]: inconclusive: 29.8 µM [activator]
activation [11]: inconclusive: -8.09%
Potency [12]: active: 50.9 µM and inactive

Cc1c(O)cccc1C(=O)N[C@@H](CSc1ccccc1)[C@H](O)CN1C[C@H]2CCCC[C@H]2C[C@H]1C(=O)NC(C)(C)C
Potency [1]: inconclusive: 74.9 µM [rising, partial curve, poor fit]
Potency [13]: active: 10.6 µM
Potency [14]: active: 19.6 µM
Potency [15]: active: 10.6 µM
Potency [3]: active: 8.41 µM and active: 11.9 µM
Potency [5]: active: 26.6 µM and active: 11.9 µM
Potency [6]: inconclusive: 7.5 µM [cytotoxic, full curve]
Potency [12]: active: 12 µM and inactive

CN(C(=O)CN(CCO)CC(=O)N(C)C(C)(C)Cc1ccccc1)C(C)(C)Cc1ccccc1
Potency [1]: inconclusive: 33.5 µM [cytotoxic, partial curve, poor fit]
Potency [3]: inconclusive: 33.5 µM [cytotoxic, single point]

C1CN(SSN2CCOCC2)CCO1
Potency [1]: inconclusive: 27.3 µM [cytotoxic, partial curve, poor fit]
Potency [2]: inconclusive: 76.2 µM [inhibitor, partial curve, poor fit]
Potency [3]: inconclusive: 67.9 µM [cytotoxic, single point] and inconclusive: 68.6 µM [cytotoxic, single point]
Potency [4]: inconclusive: 68.6 µM [cytotoxic]
Potency [5]: inconclusive: 67.9 µM [cytotoxic, single point] and inconclusive: 68.6 µM [cytotoxic, single point]
Potency [6]: inconclusive: 67.9 µM [cytotoxic, single point] and inconclusive: 61.1 µM [cytotoxic, partial curve, poor fit]
Potency [12]: active: 54.4 µM and inconclusive: 54.9 µM [cytotoxic, single point]

Cc1ccc(O)c(-n2nc3ccccc3n2)c1
Potency [1]: inconclusive: 76.3 µM [cytotoxic, partial curve, poor fit] and inconclusive: 61.1 µM [cytotoxic, partial curve, poor fit] and inconclusive: 33.5 µM [cytotoxic, partial curve, poor fit]
Potency [2]: active: 1.52 µM and active: 1.93 µM and active: 2.98 µM
Potency [6]: inconclusive: 61.1 µM [cytotoxic, partial curve, poor fit]
activation [11]: inconclusive: -32%

O=c1c(-c2ccc(O)cc2)coc2cc(O)cc(O)c12
Potency [1]: inconclusive: 75.6 µM [rising, partial curve, poor fit]
Potency [2]: active: 1.9 µM and active: 1.37 µM and active: 2.37 µM
Potency [3]: inconclusive: 53.5 µM [cytotoxic, partial curve] and inconclusive: 61.1 µM [cytotoxic, partial curve]
Potency [6]: inconclusive: 54.5 µM [cytotoxic, partial curve, poor fit]

Nc1nc(-c2ccccc2)cs1
Potency [1]: inconclusive: 30.5 µM [rising, partial curve, poor fit]
Potency [2]: inconclusive: 13.6 µM [activator, partial curve]
Potency [12]: inactive

CCN(CC)c1ccc(C(=C2C=CC(=[N+](CC)CC)C=C2)c2cc(S(=O)(=O)O)ccc2S(=O)(=O)[O-])cc1
Potency [1]: active: 15 µM
Potency [2]: inconclusive: 11.9 µM [inhibitor]
Potency [5]: inconclusive: 23.7 µM [cytotoxic, partial curve, poor fit]
Potency [6]: inconclusive: 26.6 µM [cytotoxic, partial curve, poor fit]
Potency [11]: inconclusive: 8.41 µM
Potency [12]: inconclusive: 19 µM [cytotoxic, partial curve, poor fit]
